In all, about 150,000 compounds went through this assay and about 540 (0.36%) showed an effect of 50% or more. The list shows a part of the results.

The values that follow come from ChEMBL document CHEMBL4888484, “Replenishing the malaria drug discovery pipeline: Screening and hit evaluation of the MMV Hit Generation Library 1 (HGL1) against asexual blood stage Plasmodium falciparum ,using a nano luciferase reporter read-out” (2022).

The subject of this test is Plasmodium falciparum. The test is described as follows: Primary screen in NF54 nanoGlo assay, in single point, at 2uM, 72h; a lower Z score goes with more inhibition. It is filed as functional, Erythrocyte. The following applies: timepoint 72 hour.
In general, % Inhibition refers to the drop in the measured response relative to a control, in per cent. As for `CCOC(=O)N1CCC(NC(=O)c2ccoc2)CC1`, the “% Inhibition” value is listed as -15% and the Z score is reported as 2.28.
Turning to `O=C(O)c1cccc(NC(=O)c2ccc(O)cc2)c1`, the “% Inhibition” value was determined as 4% and the Z score is given as -0.54.
For the compound `Cc1cnc(-c2cccnc2)n1CC1CN(C(=O)CCC2CCCC2)C1`, the “% Inhibition” value is given as -2% and the Z score is 0.31.
For `CC(C)c1ccoc1-c1noc(C[C@H]2CNC[C@@H]2C)n1`, the “% Inhibition” value is on record as -2% and the Z score is recorded as 0.28.
As for `Cc1noc(C(C)C)c1C(=O)N(C)C1CCN(c2ccccn2)CC1`, the “% Inhibition” value is -3% and the Z score is 0.42.
`O=C(OCc1nc(-c2ccccc2)no1)c1ccccn1`: the “% Inhibition” value is recorded as -4% and the Z score is given as 0.6.
`Cc1c(C2=NOC3(CCC(C(C)C)CC3)N2)c(=O)[nH]c(=O)n1C` (centres undefined): the “% Inhibition” value was -1% and the Z score is listed as 0.08.
In the same order, the values of `Cc1c(C(=O)O)nn(-c2cccc(F)c2)c1Oc1ccc(NC(=O)C2CCCC2)cc1S(=O)(=O)NC1CC1` are -12% and 1.11.
In the same order, the values of `CCN(CC)Cc1cc2ccccc2c2c1COC2` are 28% and -3.15.
`CCc1ccnc(C(=O)Nc2ccc(CN(C)C)cn2)c1`: the “% Inhibition” value is listed as -1% and the Z score was 0.18.
On to `Cn1nccc1[C@@H](NCc1cc(Cl)cs1)C(=O)O`, for which the “% Inhibition” value is listed as -11% and the Z score was determined as 2.03.
Take `O=C1CCc2c1cccc2C(=O)N1C[C@H](CO)C[C@H](CO)C1`: the “% Inhibition” value is -6% and the Z score turned out to be 0.96.
Consider `CO[C@@H]1CCC[C@@H]2CN(S(=O)(=O)c3ccccc3)C[C@@H]21`, for which the “% Inhibition” value turned out to be 30% and the Z score is on record as -2.94.
As for `CNC(=O)CCN(C)C(=O)c1ccc2c(c1)n(CC1CC1)c(=O)n2C1CCCCC1`, the “% Inhibition” value is listed as -11% and the Z score was found to be 2.2.
Turning to `Cc1ccc(C(=O)Nc2ccsc2-c2nnc(C(C)C)o2)cc1`, the “% Inhibition” value is listed as -8% and the Z score is 0.77.
Regarding `Cc1cccc(Cc2nnc(CCC(=O)NCc3cc(C)n(C)n3)o2)c1`, the “% Inhibition” value is -20% and the Z score came to 2.24.
Turning to `O=C(COC[C@H]1CCCO1)NC1CCN(Cc2ccccc2)CC1`, the “% Inhibition” value was -2% and the Z score came out at 0.45.
`NC(=O)c1c(NC(=O)c2cccnc2)sc2c1CCCCC2`: the “% Inhibition” value was 1% and the Z score is reported as -0.08.
`Cc1cccc(NS(=O)(=O)N2CCC3(CCCCC3)CC2)c1C(N)=O`: the “% Inhibition” value was -11% and the Z score worked out at 1.56.
Consider `O=C(COc1ccccc1)N1CC(C(=O)N2CCN(c3ccccc3F)CC2)CC(c2ccccc2)C1` (centres undefined), for which the “% Inhibition” value was -7% and the Z score is given as 1.24.
On to `COCC(C)C(=O)N1CCNC(=O)CC1c1ccccc1` (centres undefined), for which the “% Inhibition” value is given as -20% and the Z score is 1.81.
With `N#CCc1ccc(OC(F)(F)F)cc1`, the “% Inhibition” value is -9% and the Z score is on record as 1.39.
As to `CC1c2cccn2CCN1CC(=O)N(C1CCCC1)C1CCS(=O)(=O)C1` (centres undefined), the “% Inhibition” value is on record as -7% and the Z score amounted to 0.64.
For `O=C(NCc1ccnc(NC2CC2)c1)c1ncccc1Br`, the “% Inhibition” value is -14% and the Z score was determined as 2.58.
In the same order, the values of `CC(C)(C)c1csc(N=C2CCCN2)n1` are -4% and 0.41.
Turning to `CCn1ccc(C(=O)NC[C@](O)(CC)CCCO)cc1=O`, the “% Inhibition” value was -11% and the Z score worked out at 1.16.
In the case of `O=C(NCCn1cccn1)c1cccc(S(=O)(=O)N2CCCOCC2)c1`, the “% Inhibition” value is recorded as -8% and the Z score came out at 1.48.
`C[C@@H]1OC2(CCN(CCOCC(F)F)CC2)NC1=O`: the “% Inhibition” value was -1% and the Z score is 0.12.
Regarding `CCc1nnc2n1CCC1(CC2)CCN(C(=O)Cc2cccc(F)c2)CC1`, the “% Inhibition” value is reported as -18% and the Z score is reported as 1.74.
On to `COc1c(C)cnc(COc2nc(C)no2)c1C`, for which the “% Inhibition” value turned out to be 0% and the Z score turned out to be 0.03.
As for `CC1=NNC(=O)[C@H]1CCNC(=O)C1(c2cc(F)cc(F)c2)CCCC1`, the “% Inhibition” value is recorded as -14% and the Z score was determined as 1.82.
Regarding `C[C@H]1CCCN(c2nn(CC(=O)Nc3ccc(F)cc3)c(=O)c3ccccc23)C1`, the “% Inhibition” value is -6% and the Z score is 0.91.
As to `O=c1[nH]c(Cn2cc(Br)cn2)nc2cccc(F)c12`, the “% Inhibition” value is 2% and the Z score was -0.2.
In the case of `O=C1[C@@H]2CCCN2C(=O)CN1CCS(=O)(=O)c1ccccc1`, the “% Inhibition” value amounted to 0% and the Z score is on record as -0.05.
Take `COCCOc1cccc(CNC[C@H]2CC(C(N)=O)=NO2)c1`: the “% Inhibition” value worked out at 5% and the Z score is -0.63.
The like results for `CN(C[C@H]1COc2ccccc2O1)C(=O)c1cc(Cl)sc1S(N)(=O)=O` were, in that order, -2% and 0.43.
Turning to `CC(C)c1nnc([C@H](C)NC(=O)Cc2ccc(O)c(Cl)c2)o1`, the “% Inhibition” value is reported as -3% and the Z score worked out at 0.44.
Turning to `Cc1nc2ccc(NC(=O)C3C4CCC(O4)C3C(F)(F)F)cn2n1` (centres undefined), the “% Inhibition” value is on record as -4% and the Z score turned out to be 0.48.
In the same order, the values of `CC(C(=O)N(C)C(C)c1cnn(C)c1)c1ccc(Cl)s1` (centres undefined) are -7% and 0.93.
The like results for `Cc1cc(=O)cc(C(=O)N[C@@H]2COCC[C@@H]2OCC2CCC2)n1C` were, in that order, -9% and 1.61.
Regarding `CCCN1CCCN(Cc2ccn(-c3ccccc3)n2)CC1=O`, the “% Inhibition” value is recorded as -11% and the Z score was determined as 1.51.
As to `Cc1ccc(F)cc1-c1nnc(NC(=O)N2C3CCC2COC3)s1`, the “% Inhibition” value is given as -12% and the Z score worked out at 1.19.
